Experimental data published in patent US20210323993A1, “Compounds Useful in HIV Therapy” (priority 2018, published 2021).
Like-named read-outs stand apart in the source and are kept apart here.

How the values were obtained:
[1] = system: pseudotyped virus (NL4-3 provirus, luciferase reporter), M184V; conditions: U373 cells expressing human CD4 and CXCR4 or CCR5; luciferase signal after 3 days of culture
Source text: (§1) A pseudotyped virus assay (PSV) was used to assess the potency of the HIV inhibitor. Replication defective virus was produced by co-transfection of a plasmid containing an NL4-3 provirus [containing a mutation in the envelope open reading frame (ORF) and a luciferase reporter gene replacing the nef ORF] and a CMV-promoter expression plasmid containing an ORF for various HIV gp160 envelope clones. The harvested virus was stored at −80C in small aliquots and the titer of the virus measured to produce a robust signal for antiviral assays.
(§2) The PSV assay was performed by using U373 cells stably transformed to express human CD4, the primary receptor for HIV entry and either human CXCR4 or human CCR5 which are the co-receptors required for HIV entry as target cells for infection. Molecules of interest (including, but not limited to small molecule inhibitors of HIV, neutralizing antibodies of HIV, antibody-drug conjugate inhibitors of HIV, peptide inhibitors of HIV, and various controls) are capable of being diluted into tissue culture media and diluted via serial dilution to create a dose range of concentrations, and this was carried out for Example 1. This dose-range was applied to U373 cells and the pre-made pseudotyped virus added. The amount of luciferase signal produced after 3 days of culture was used to reflect the level of pseudotyped virus infection. An IC50, or the concentration of inhibitor required to reduce PSV infection by 50% from the infection containing no inhibitor was calculated. Assays to measure cytotoxity were performed in parallel to ensure the antiviral activity observed for an inhibitor was distinguishable from reduced target cell viability. IC50 values were determined from a 10 point dose response curve using 3-4-fold serial dilution for each compound, which spans a concentration range >1000 fold.
(§3) These values are plotted against the molar compound concentrations using the standard four parameter logistic equation:
(§4) y=((Vmax *x^n)/(K^n+x^n))+Y2
(§5) Y2=minimum y n=slope factor
(§6) Vmax=maximum y x=compound concentration [M]

[2] = system: pseudotyped virus (NL4-3 provirus, luciferase reporter), WT; experiment: microbe, parasite or virus in culture; conditions: Human immunodeficiency virus 1, NL43, 72 h, read-out: WT IC50
Source text: as §1, §2, §3, §4, §5, §6

[3] = system: pseudotyped virus (PSV), WT; experiment: microbe, parasite or virus in culture; conditions: for IC50: Human immunodeficiency virus 1, U373 MG; for Fold Change vs EFdA: fold change of the persistence index relative to EFdA; for Persistence Index: ratio of the IC50 determined at 48 and 0 h
Experimental: The PSV assay was adapted to determine the antiviral persistence of each compound. This assay evaluates the ability of each compound to remain active in cells for two days i.e. prevent PSV infection of cells in a dose dependent manner, 48 h after the removal of compound. Duplicate plates of U373 cells were treated with a serial dilution of small molecule inhibitors for 6 h at 37° C. Compounds were removed from cells by washing twice cells with 1×PBS. For baseline group (i.e. immediately after washing or 0 h), cells were infected with prepared PSVs and cultured for three days. For experimental group (48 h), the culture medium is added to the washed cells and the plate incubated at 37° C. for 48 h. After two days of culture, the prepared PSVs were added to the cells and the mixture cultured for three days. The amount of luciferase signal produced after culture was used to reflect the level of pseudo typed virus infection in the baseline group (0 h) and experimental group (48 h) for each compound. An IC50, or the concentration of inhibitor required to reduce PSV infection by 50% from the infection containing no inhibitor was calculated. The persistence index, which is the ratio of the IC50 determined at 48 and 0 h is presented in Table 2 as well as the fold change of the persistence index relative to EFdA [(2R,3S,5R)-5-(6-amino-2-fluoro-9H-purin-9-yl)-2-ethynyl-2-(hydroxymethyl)tetrahydrofuran-3-ol].
Statistical analysis and graphing of the data were performed in JMP 13.2.1 (SAS Institute, Cary, N.C.). A four-parameter logistic Hill Model was fit to % Inhibition and log10 concentration values, separately for each compound, time point and run. A pilot experiment included 2 independent experimental runs and a later follow-up experiment included 4 runs. Quality control criteria based on R^2 and 95% confidence interval ranges of all four parameter estimates were used to exclude curves with poor fits. Using inverse prediction, log10 concentrations were obtained that correspond to 50% Inhibition (log10IC50*) and the log10 persistence index was calculated for each compound and run using the following formula: log10 persistence Index=log10IC50*48 hrs−log10IC50*0 hrs. Next, a linear mixed effects model was fit on log10 persistence index values with a fixed effect for compound and a random effect for experimental run, followed by post hoc contrasts to compare the log10 persistence index of the positive control EFdA to the log10 persistence index of other test compounds. The estimated LSMeans and differences were then back-transformed via 10^Estimate to the original scale and reported as persistence index and fold change respectively. Raw p-values were reported.

| Structure (SMILES) | IC50 [1] | IC50 [2] | IC50 ([3]; read-out: WT IC50 at t = 0 h) | IC50 ([3]; read-out: WT IC50 at t = 48 h) | Fold Change vs EFdA [3] | Persistence Index [3] |
| --- | --- | --- | --- | --- | --- | --- |
| C#C[C@]1(CO)O[C@@H](n2cnc3c(NC(=O)OCC)nc(F)nc32)C[C@@H]1OC(=O)OCC [Example 7, ethyl (9-((2R,4S,5R)-4-((ethoxycarbonyl)oxy)-5-ethynyl-5-(hydroxymethyl)tetrahydrofuran-2-yl)-2-fluoro-9H-purin-6-yl)carbamate] | 15000 nM | 13300 nM | – | – | – | – |
| C#C[C@]1(CO)O[C@@H](n2cnc3c(NC(=O)CCCCCCCCC)nc(F)nc32)C[C@@H]1O [Example 14, N-(9-((2R,4S,5R)-5-ethynyl-4-hydroxy-5-(hydroxymethyl)tetrahydrofuran-2-yl)-2-fluoro-9H-purin-6-yl)decanamide] | 6.1 nM | 1.8 nM | – | – | – | – |
| C#C[C@]1(COC(=O)OCCCCCCCCCCCCCCCCCC)O[C@@H](n2cnc3c(N)nc(F)nc32)C[C@@H]1O [Example 13, ((2R,3S,5R)-5-(6-amino-2-fluoro-9H-purin-9-yl)-2-ethynyl-3-hydroxytetrahydrofuran-2-yl)methyl octadecyl carbonate] | 41.1 nM | 10.4 nM | – | – | – | – |
| C#C[C@]1(COCOC(=O)OCCCCCCCCCC)O[C@@H](n2cnc3c(N)nc(F)nc32)C[C@@H]1O [Example 6, (((2R,3S,5R)-5-(6-amino-2-fluoro-9H-purin-9-yl)-2-ethynyl-3-hydroxytetrahydrofuran-2-yl)methoxy)methyl decyl carbonate] | 11.1 nM | 3.4 nM | 2.1 nM | 98.6 nM | 0.90 | 47.7 |
| C#C[C@]1(CO)O[C@@H](n2cnc3c(N)nc(F)nc32)C[C@@H]1O [EFdA, (2R,3S,5R)-5-(6-amino-2-fluoro-9H-purin-9-yl)-2-ethynyl-2-(hydroxymethyl)tetrahydrofuran-3-ol, reference compound] | 35.1 nM | 6.5 nM | 7.4 nM | – | 1.00 | 42.9 |
| C#C[C@]1(COC(=O)OCC)O[C@@H](n2cnc3c(N)nc(F)nc32)C[C@@H]1O [Example 5, ((2R,3S,5R)-5-(6-amino-2-fluoro-9H-purin-9-yl)-2-ethynyl-3-hydroxytetrahydrofuran-2-yl)methyl ethyl carbonate] | 112 nM | 19.5 nM | – | – | – | – |
| C#C[C@]1(COC(=O)OCCCCCCCCCCCC)O[C@@H](n2cnc3c(N)nc(F)nc32)C[C@@H]1O [Example 4, ((2R,3S,5R)-5-(6-amino-2-fluoro-9H-purin-9-yl)-2-ethynyl-3-hydroxytetrahydrofuran-2-yl)methyl dodecyl carbonate] | 10.9 nM | 2.5 nM | 1.1 nM | 21.9 nM | 2.25 | 19.1 |
| C#C[C@]1(CO)O[C@@H](n2cnc3c(N)nc(F)nc32)C[C@@H]1OC(=O)OCCCCCCCCCCCCCCCCCCCC [Example 10, (2R,3S,5R)-5-(6-amino-2-fluoro-9H-purin-9-yl)-2-ethynyl-2-(hydroxymethyl)tetrahydrofuran-3-yl icosyl carbonate] | > 25000 nM | 5400 nM | – | – | – | – |
| C#C[C@]1(COCOC(=O)C(C)C)O[C@@H](n2cnc3c(N)nc(F)nc32)C[C@@H]1O [Example 1, (((2R,3S,5R)-5-(6-amino-2-fluoro-9H-purin-9-yl)-2-ethynyl-3-hydroxytetrahydrofuran-2-yl)methoxy)methyl isobutyrate] | 49.8 nM | 8.5 nM | – | – | – | – |
| C#C[C@]1(CO)O[C@@H](n2cnc3c(N)nc(F)nc32)C[C@@H]1OC(=O)OCCCCCCCCCCCCCCCCCCC [Example 9, (2R,3S,5R)-5-(6-amino-2-fluoro-9H-purin-9-yl)-2-ethynyl-2-(hydroxymethyl)tetrahydrofuran-3-yl nonadecyl carbonate] | 19400 nM | 2000 nM | – | – | – | – |
| C#C[C@]1(CO)O[C@@H](n2cnc3c(NC(=O)CCCCCCCCCCCCC)nc(F)nc32)C[C@@H]1O [Example 15, N-(9-((2R,4S,5R)-5-ethynyl-4-hydroxy-5-(hydroxymethyl)tetrahydrofuran-2-yl)-2-fluoro-9H-purin-6-yl)tetradecanamide] | 7.4 nM | 1.4 nM | – | – | – | – |
| C#C[C@]1(COCOC(=O)OC(C)C)O[C@@H](n2cnc3c(N)nc(F)nc32)C[C@@H]1O [Example 2, (((2R,3S,5R)-5-(6-amino-2-fluoro-9H-purin-9-yl)-2-ethynyl-3-hydroxytetrahydrofuran-2-yl)methoxy)methyl isopropyl carbonate] | 60 nM | 9.5 nM | 19.5 nM | 532 nM | 1.44 | 29.9 |
| C#C[C@]1(CO)O[C@@H](n2cnc3c(NC(=O)OCC)nc(F)nc32)C[C@@H]1O [Example 3, ethyl (9-((2R,4S,5R)-5-ethynyl-4-hydroxy-5-(hydroxymethyl)tetrahydrofuran-2-yl)-2-fluoro-9H-purin-6-yl)carbamate] | 6290 nM | 1540 nM | – | – | – | – |
| C#C[C@]1(COCOC(=O)OCCCCCCCCCCCCCCCC)O[C@@H](n2cnc3c(N)nc(F)nc32)C[C@@H]1O [Example 11, (((2R,3S,5R)-5-(6-amino-2-fluoro-9H-purin-9-yl)-2-ethynyl-3-hydroxytetrahydrofuran-2-yl)methoxy)methyl hexadecyl carbonate] | 19 nM | 6.5 nM | – | – | – | – |
| C#C[C@]1(CO)O[C@@H](n2cnc3c(N)nc(F)nc32)C[C@@H]1OC(=O)OCC [Example 8, (2R,3S,5R)-5-(6-amino-2-fluoro-9H-purin-9-yl)-2-ethynyl-2-(hydroxymethyl)tetrahydrofuran-3-yl ethyl carbonate] | 185 nM | 28.9 nM | – | – | – | – |
